About 2,200 (0.71%) of roughly 310,000 compounds showed an effect of 50% or more. Effects have a minus sign here. Some of the results follow.
Molecular target: human ether-à-go-go-related gene (hERG) potassium channel (human, UniProt Q12809)
Test: primary screen, population patch clamp on CHO cells stably expressing hERG

Sequence of human ether-à-go-go-related gene (hERG) potassium channel (Q12809 whole entry, looked up): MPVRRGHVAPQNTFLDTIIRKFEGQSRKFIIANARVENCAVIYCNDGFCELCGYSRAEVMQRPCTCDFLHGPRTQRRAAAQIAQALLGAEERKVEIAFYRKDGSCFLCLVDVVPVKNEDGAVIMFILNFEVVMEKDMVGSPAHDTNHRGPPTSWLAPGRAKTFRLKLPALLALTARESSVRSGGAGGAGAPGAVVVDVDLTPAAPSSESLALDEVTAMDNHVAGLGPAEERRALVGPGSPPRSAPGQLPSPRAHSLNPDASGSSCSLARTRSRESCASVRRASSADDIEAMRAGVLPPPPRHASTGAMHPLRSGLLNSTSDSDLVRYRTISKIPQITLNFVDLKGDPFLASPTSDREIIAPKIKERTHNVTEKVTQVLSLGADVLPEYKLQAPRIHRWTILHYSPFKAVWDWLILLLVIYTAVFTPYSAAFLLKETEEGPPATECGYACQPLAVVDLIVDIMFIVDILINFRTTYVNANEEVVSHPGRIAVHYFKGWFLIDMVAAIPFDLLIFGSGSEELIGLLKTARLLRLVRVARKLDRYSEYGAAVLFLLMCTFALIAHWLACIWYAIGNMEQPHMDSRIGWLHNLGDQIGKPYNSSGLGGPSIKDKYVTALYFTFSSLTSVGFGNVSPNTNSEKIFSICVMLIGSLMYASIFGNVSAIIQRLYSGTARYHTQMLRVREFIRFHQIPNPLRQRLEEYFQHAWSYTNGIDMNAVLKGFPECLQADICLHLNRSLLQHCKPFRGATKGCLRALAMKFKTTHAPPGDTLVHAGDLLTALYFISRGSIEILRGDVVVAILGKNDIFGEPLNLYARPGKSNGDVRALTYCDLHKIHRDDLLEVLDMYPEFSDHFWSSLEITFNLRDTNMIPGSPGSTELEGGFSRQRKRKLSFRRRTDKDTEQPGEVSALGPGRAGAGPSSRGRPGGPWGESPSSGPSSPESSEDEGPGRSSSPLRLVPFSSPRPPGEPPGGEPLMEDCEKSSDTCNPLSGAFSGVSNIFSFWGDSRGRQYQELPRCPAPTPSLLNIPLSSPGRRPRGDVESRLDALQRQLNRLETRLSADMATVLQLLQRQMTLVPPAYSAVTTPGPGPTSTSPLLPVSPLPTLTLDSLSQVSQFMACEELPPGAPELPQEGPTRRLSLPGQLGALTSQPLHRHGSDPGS

First: COc1cccc(N2CCN(S(=O)(=O)c3c(C)[nH]c(C)c3C(=O)N3CCCC3)CC2)c1
Second: COc1ccc(S(=O)(=O)N2CCOC23CCN(S(=O)(=O)c2ccc(F)cc2)CC3)cc1
The “hERG current change (%, negative = inhibition) at 1uM” value of the first is higher: 13.5% for the first, 6.42% for the second.

First: CCN1CCN(CCNC(=O)c2ccc(CS(=O)c3ccc(Cl)cc3)o2)CC1 (stereo not shown)
Second: Cc1ccc(NC(=S)NCc2ccc(S(N)(=O)=O)cc2)cc1Cl
The “hERG current change (%, negative = inhibition) at 1uM” value of the first is lower: 8.59% for the first, 8.61% for the second.

Compared with `O=C(OCn1nnc2ccccc2c1=O)c1ccco1`, `CC(C)Cn1c(-c2ccco2)nc2c(c(=O)c3ccccc3n2C)c1=O` is lower in “hERG current change (%, negative = inhibition) at 1uM” value: 10.7% for the first, -5.08% for the second.

Compared with `CC(C)CC(=O)N1CCN(C(=O)c2ccco2)CC1`, `COc1ccc(C(=O)NCc2nnc(SCC(=O)N3CCCC3)o2)cc1OC` is higher in “hERG current change (%, negative = inhibition) at 1uM” value: 8.93% for the first, 12.5% for the second.

Going from `COc1ccc(-c2nc(CS(=O)(=O)CC(=O)NCc3cccc(Br)c3)c(C)o2)cc1` to `COc1cccc(OC)c1C(=O)Nn1c(-c2cccc(C)c2)nc2ccccc2c1=O`, the “hERG current change (%, negative = inhibition) at 1uM” value rises from -11.4% to 12.6%.

Compared with `CC(Cc1ccccc1)N1C(=O)c2ccccc2C1=O` (stereo not shown), `CSc1cccc(NC(=O)CN2C(=O)c3ccccc3S2(=O)=O)c1` is lower in “hERG current change (%, negative = inhibition) at 1uM” value: 16.1% for the first, 5.37% for the second.

`CCOc1ccc(N(CC(=O)NCCSc2ccccn2)S(C)(=O)=O)cc1` and `CC(=O)Nc1ccc(S(=O)(=O)NC(C)c2ccccc2)cc1` (stereo not shown) are the same in “hERG current change (%, negative = inhibition) at 1uM” value: 12.9% for the first, 12.9% for the second.

Compared with `CCOC(=O)c1sc(=S)n(C)c1NC(=O)c1ccccc1Cl`, `CCn1c(SCC(=O)N/N=C/c2ccc(C)s2)nc2ccccc21` is lower in “hERG current change (%, negative = inhibition) at 1uM” value: 15% for the first, 8.66% for the second.

Compared with `CCCCCn1c(Sc2nc3ccccc3s2)nc2c1c(=O)[nH]c(=O)n2C`, `Cc1ccccc1OCc1nnc(SCc2nc3ccccc3c(=O)[nH]2)n1C` is higher in “hERG current change (%, negative = inhibition) at 1uM” value: 0.9% for the first, 9.26% for the second.

Compared with `COC(=O)/C(=C(O)\C=C\c1ccccc1[N+](=O)[O-])c1nc2ccccc2[nH]1`, `CN(Cc1ccccc1)c1nc(-c2cccc([N+](=O)[O-])c2)nc2ccccc12` is lower in “hERG current change (%, negative = inhibition) at 1uM” value: 7.17% for the first, 4.94% for the second.

First: Cc1ccc(CNCCc2ccc(F)cc2)s1
Second: Cc1nn(-c2ccccc2)c(Oc2ccc(F)cc2)c1/C=N/n1cnnc1
The “hERG current change (%, negative = inhibition) at 1uM” value of the first is higher: 11.3% for the first, -11.6% for the second.

First: CSCCC(NC(=O)c1ccccc1Br)C(=O)NC(C)CCc1ccccc1 (stereo not shown)
Second: CN(C)CCCN1C(=O)C(O)=C(C(=O)c2cc3ccccc3o2)C1c1ccccc1 (stereo not shown)
The “hERG current change (%, negative = inhibition) at 1uM” value of the first is higher: 11.7% for the first, 8.14% for the second.

Going from `O=C(NCCCNC(=O)c1ccco1)c1ccco1` to `CCCC(=O)NC(=S)Nc1ccc(NC(=O)c2cccs2)cc1`, the “hERG current change (%, negative = inhibition) at 1uM” value falls from 10.9% to -3.11%.

First: COC(=O)/C(N=Nc1cccc(C(F)(F)F)c1)=C(\C)O
Second: COc1ccc(NC(=O)Nc2ccc(Br)cn2)cc1OC
The “hERG current change (%, negative = inhibition) at 1uM” value of the first is higher: 7.24% for the first, 5.18% for the second.

Compared with `CN(Cc1ncc[nH]1)C(=O)CC1C(=O)NCCN1Cc1c(F)cccc1Cl` (stereo not shown), `CC(=O)Nc1nnc(CSCc2ccccc2F)s1` is higher in “hERG current change (%, negative = inhibition) at 1uM” value: 12.3% for the first, 13.8% for the second.

First: O=C(Nc1cccc(O)c1)c1ccc(C(=O)c2ccccc2)o1
Second: O=C(N/N=C/c1cccc(Oc2ccccc2)c1)c1ccccc1F
The “hERG current change (%, negative = inhibition) at 1uM” value of the first is lower: -1.55% for the first, 7.7% for the second.

First: CCOC(CNC(=O)Cc1c(C)nc2c(-c3ccccc3)c(C)nn2c1C)OCC
Second: N#Cc1c(NCCN)nc(-c2ccccc2)c2c1CCCC2
The “hERG current change (%, negative = inhibition) at 1uM” value of the first is higher: 4.51% for the first, 2.17% for the second.

First: NC(=O)C1c2ccccc2CSc2ccccc21 (stereo not shown)
Second: CC1(c2ccccc2)NC(=O)N(CC(=O)Nc2ccc3c(c2)OCO3)C1=O (stereo not shown)
The “hERG current change (%, negative = inhibition) at 1uM” value of the first is lower: 4.14% for the first, 4.91% for the second.

Compared with `CNC(=O)CCC(=O)Nc1ccc(C)cc1`, `Cc1cc([N+](=O)[O-])ccc1NC(=O)C[n+]1ccc(N(C)C)cc1.[Cl-]` is lower in “hERG current change (%, negative = inhibition) at 1uM” value: 7.38% for the first, 2.44% for the second.

Compared with `COc1ccc(-n2c(Cc3cccn3C)nnc2SCC(=O)Nc2ccc3c(c2)OCCO3)cc1`, `Cc1cccc2sc(NC(=O)CCNS(=O)(=O)c3cccc4nonc34)nc12` is higher in “hERG current change (%, negative = inhibition) at 1uM” value: 1.16% for the first, 3.33% for the second.

Going from `O=C1C=C(NCc2ccccc2)C2(CCCCC2)O1` to `Cc1ccnc(N=Cc2c(O)ccc3oc4c(c23)CCCC4)c1`, the “hERG current change (%, negative = inhibition) at 1uM” value rises from 4.74% to 5.18%.

With `CC(=O)c1sc(NC(=O)C(C)Oc2ccc3c(C)cc(=O)oc3c2)nc1C` (stereo not shown) the “hERG current change (%, negative = inhibition) at 1uM” value was 13.7%.

Reference: paper PMC4336329 (PLoS ONE, 2015)
